# Laboratory results reported in the RNAGym collection of RNA variant scans (doi:10.7554/elife.90254).
# The source gives no read counts; variants with many changes may rest on few reads.
# B1: LINE1-mini (parent)
# chain: GGCAGAGCUCAACACAGCGUGGCAAAGUGGCUGUGGCUAGACUGCC
# Variants of: B1
# Assay: self-cleavage, relative activity (ratio to wild type); higher = more cleavage; in vitro, sequencing; the parent is a self-cleaving ribozyme
row,Variant,self-cleavage
1,GGUAGAGCUAAUCACAGCGUGGCAAAGUGGCUGUGGGUACACUGCU [C3U C10A A12U C37G G40C C46U],0.01
2,GGCAGAGCUCAACACAGCGUAGCAAAGUGGCUGUGGCUACACUGAC [G21A G40C C45A],0.1
3,GUCAGAGCUCAACCCAGCGUGUCAAAGUGGUUGUGGAUAGACUGCC [G2U A14C G22U C31U C37A],0.01
4,GGCAGAUCUCAACACAGCGUGGCAAAGUGGCGGCGGCUAGACUGCC [G7U U32G U34C],0.33
5,GGCAGACCUCAACACAGUGUAGCAAAGUGGCGAUGACUAGACUGCC [G7C C18U G21A U32G G33A G36A],0.06
6,GGCAGAGCUCCACACAUCGUGCCGAAGUGGCUGUGGCUAAACUGCC [A11C G17U G22C A24G G40A],0
7,AGUAGAGCUCAACACAGCGUGGCAAAGUGUCUGUGGCUAGACUGCC [G1A C3U G30U],0.11
8,UGCAGGGCUCAACAUAGCCUGGCAAAGUGGCUCUGGCUAGACUGCU [G1U A6G C15U G19C G33C C46U],0.02
9,GGCAGAGCUCAACACAAGGUGGCAAAGUAGCUGUGGCUAGACUGCC [G17A C18G G29A],0.08
10,GACAGAGCUCAAAACAGCGUGGCAAAGGGGAUGUGGCUAGAAUGCC [G2A C13A U28G C31A C42A],0.08
11,GGCGGAGCUCAACACAUCGUGGCAAAGUGGCUGUGUCUAGACUGCC [A4G G17U G36U],0.15
12,GGCAGACCUCAACACAACGUAGCAAAGUGGCUGUGGCUAGACUGCC [G7C G17A G21A],0.07
13,GGCAGAACCCAACACAGCCUGGCAAAGUUGCUGUGGCUAGACUGAC [G7A U9C G19C G29U C45A],0.01
14,GGCAGUGCUAAACACAGCGUGGCAAAGGGGCUGUUGCUAGACUGCC [A6U C10A U28G G35U],0.01
15,GGCAGAACUCUACACAGCGUGGCUAAGUGACUGUGGCUAGACUGCC [G7A A11U A24U G30A],0.02
16,GGAAGAGCUCAACACAGCGUGGCAAAGGGGCUGUGGCUAGACCGCC [C3A U28G U43C],0.08
17,GGCAGAGCCCAACACAGCGGGGCAAAGUGGCUGUGGCUAGACUUCA [U9C U20G G44U C46A],0.01
18,GGCAGAGCACAACACAGCGUGGCAAAGUGGCUGAGGCUAGACUGGC [U9A U34A C45G],0.29
19,GGCAGAGCUGAACACAGCGUGGCAAAGUGGCCGUGACUAGGCUGCC [C10G U32C G36A A41G],0.02

row,Variant,self-cleavage
1,GGCAGAGCUCAAGAGAGCGUGGCAAAGUGGCUGUGACUAGACUCCC [C13G C15G G36A G44C],0.06
2,GGCAGAGCUCAACACAGCGCGGCAAAGUGGCUGUGGCUGGUCUGCC [U20C A39G A41U],0
3,GGCAGGUCUCGACACAGCGUGUCAAAGUGGCUUUGGCUAGAAUGCC [A6G G7U A11G G22U G33U C42A],0.01
4,GGCAGAGCUCAACACAGUGUGGCAAAGUUGCGGUGGCUAGACUCCC [C18U G29U U32G G44C],0.03
5,GGCAGAGCUAAACACAACGUGGCAAAGUCGAUGUGGCUAGACUGCC [C10A G17A G29C C31A],0
6,GGCAGAUCUCAACACUGCGUGGCAAAGUGCCUGUGGCUAGAUUGCG [G7U A16U G30C C42U C46G],0.12
7,GGCAGAGCUCAACACAGCGUGGCAAUGUGGCUGUUGCGAGACUGCC [A26U G35U U38G],0.05
8,GGCAGAGCUCAAUUCAGCGUGGCAACGUGGCUAGGGUUCGAAUGCC [C13U A14U A26C G33A U34G C37U A39C C42A],0.03
9,GGCCAAGCUGAACAAAGCGUGGCAAAGUGGCUGUGGCUAGACUGCC [A4C G5A C10G C15A],0.02
10,GGCAGAGCUCUACACAGCGUGGUAAAGUGGCGGGGGCUAGACUGCC [A11U C23U U32G U34G],0.01
11,GGCAUAGCUCAACACAGCGUGGCAAAGUGCCUGUGGCUUGACUGCC [G5U G30C A39U],0.01
12,AGCAGAGCUCAACACGGCGUGGCAAAGUGGCUGUGGCUAGAGUGCC [G1A A16G C42G],0.02
13,GGCAGACCUCAACACAGCGUGACAAAGUGGCUGUGGCUAGAGUGAC [G7C G22A C42G C45A],0.04
14,GGCAGAGCUGAACACACCGUGGGAAAGUGGCUGUGGCUAGACUGCC [C10G G17C C23G],0.08
15,UGCAGAGCUCAACACAGCGUGGCAAAGUGGCUGAGGCGAGACUGCC [G1U U34A U38G],0.01
16,CGCUGAGCUCAACACAGCGUGGCAAAGUGGCUUUGGCUAGACUGCC [G1C A4U G33U],0.02
17,GGAAGAGCUCAACACAGCGUGGUACAGCGGCUUUGGCUAGACUGCC [C3A C23U A25C U28C G33U],0.24
18,GGCAGAGCUUAUGACAGCGUCGCAAAGUGGCUGUGGCUAGACUGCC [C10U A12U C13G G21C],0.06
19,GGAAGAAAUCAACCCGGCGUGGCAAAGUGGCUGUGGCUAGACUGCC [C3A G7A C8A A14C A16G],0.2

row,Variant,self-cleavage
1,GGCAUUGCUCAACGCAGCGUGGCAAAAUGCCUGUUGCUACACUGCC [G5U A6U A14G G27A G30C G35U G40C],0.07
2,GGCAGAGCUCAACACAGCGUGGCAACGAGGCUGUUGCUAGACUGCC [A26C U28A G35U],0.05
3,GUCAGAGCUCAGCACCGCGUGGCAAAGUGGAUGAGUCUAGACUGCC [G2U A12G A16C C31A U34A G36U],0
4,GGCAGAGCUCAAUACAGCGUGGGAAAGUGGCAGUGGCUAGUCUGCC [C13U C23G U32A A41U],0
5,GGCAGAGCUCAACACAACAUGGCAACGUGGCUGUGGCUAAACUGCC [G17A G19A A26C G40A],0.11
6,GGCAGAGCUCAACACAGCUUGGCAAGGUGGCUGUGGCUAGACUGCG [G19U A26G C46G],0.1
7,GGGAGAGCUCCACACAGCGUGGCAAAGUGGCCGUGGCUAGACUGCC [C3G A11C U32C],0.04
8,GGCAUAGCUCAACACAGCGUGGCCAAGUGGCUGUGGCAAAACUGCC [G5U A24C U38A G40A],0.03
9,GGCAGCUCUCAACUCAGCGUGGCAAAGUCGCUGUGGCUAGACAGCC [A6C G7U A14U G29C U43A],0.71
10,GGCAGGGCUCAACACAGCGUGGCAAAUUGGCUGUUGCUAGACUGCC [A6G G27U G35U],0.09
11,GGCAGAGCUCAACACAGCAUGGCAAAGUGUCUGUGGAUAGACUGCC [G19A G30U C37A],0
12,GGCAGAGAUCAACACAGCGUGGCAAAGGGGCUGUGGAUACACUGCC [C8A U28G C37A G40C],0.02
13,GGCAGAGCUCAAGACAGCGAGGCAAAUUGACUGUGUCUAGACUGCC [C13G U20A G27U G30A G36U],0.09
14,GGCAGAGCUCAUCACCGCGUGGAAAAGUGGCUGUGGCUAGAGUGCC [A12U A16C C23A C42G],0.06
15,GGCAUCGCUCAACACAGCGUGCCAAGGUGGCUGUGGCUAGAAUGCC [G5U A6C G22C A26G C42A],0.09
16,GGCAGAGCUCAACACACCGUGGCAACGGGGCAGUGGCUAGACUGCC [G17C A26C U28G U32A],0.15
17,GGCAGAGCUCAACACAGCGUGGCACAGUGGCUGAGGCUAGACUGAC [A25C U34A C45A],0.06
18,GACAGAGCUCAACACAGCGUGGAGAUGUGGCUGUGGCUAGACUGCC [G2A C23A A24G A26U],0.29
